{
  "source": "PubChem BioAssay AID686970",
  "about": "(National Center for Advancing Translational Sciences (NCATS), 2013)",
  "note": "About 6,000 (1.7%) of roughly 360,000 compounds were called active. This list was built around the results that the source calls inconclusive (neither active nor inactive); the mix of calls is not that of the screen. Calls come from the whole dose curve; as a rule, active = well fitted cell-killing curve with a large enough effect; inconclusive = small, poorly fitted or top-dose-only effect, or effect the other way; inactive = flat fitted curve, though single readings scatter. No potency is given beside an inconclusive call; the fits are too rough. Potency is the fitted concentration of half-maximal effect; tags give direction and shape of the fitted curve.",
  "data": [
    {"assay": "qHTS for induction of synthetic lethality in tumor cells producing 2HG: qHTS for the HT-1080-NT fibrosarcoma cell line;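 note: NT is the 2HG producing partner of a matched IDH1 knockdown line; nearly all actives have a fitted effect of over 55% in size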;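 for activity, negative = less viability: 0% = DMSO-treated cells and -100% = media-only wells without cells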", "conditions": "HT-1080-NT fibrosarcoma viability, CellTiter-Glo ATP luminescence, 48 h; activity, negative = less viability: at 46.1 µM (top of the series) unless noted", "outline": "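Luminescent CellTiter-Glo readout after 48 hours of compound exposure at 37 degrees C defined viability of HT-1080-NT cells. Activity was normalized to DMSO wells and cell-free media wells; concentration-response curves were fitted and assigned curve classes.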", "values": [
      {"smiles": "Cc1cc(N2CCOCC2)nc2ccc(NC(=S)N3CCCCC3C)cc12", "note": "(configuration not stated)", "Potency": "inconclusive [cytotoxic, partial curve, poor fit]"},
      {"smiles": "CCOc1ccc(N(CC(=O)NC2CCCCC2)C(=O)CSc2nnc(COc3ccccc3)o2)cc1", "Potency": "inconclusive [cytotoxic, single point]"},
      {"smiles": "CCOC(=O)CN1C(=O)C(Sc2n[nH]c(-c3ccc(C)cc3)n2)CCc2ccccc21", "note": "(configuration not stated)", "Potency": "inconclusive [cytotoxic, single point]"},
      {"smiles": "N#C/C(=C\\c1ccc(N2CCOCC2)o1)c1ccccc1", "Potency": "inconclusive [cytotoxic, full curve]"},
      {"smiles": "O=C(Nc1cccc(Br)c1)Oc1cccc2cccnc12", "Potency": "active: 16.4 µM"},
      {"smiles": "Cc1nn(C)c(C)c1NC(=O)CCl", "Potency": "inconclusive [cytotoxic, partial curve]"},
      {"smiles": "Clc1ccccc1-c1ncnc2ccc(Br)cc12", "Potency": "inconclusive [cytotoxic, partial curve, poor fit]"},
      {"smiles": "FC(F)(F)c1ccccc1Cc1c(-c2ccc(Cl)cc2)nc2ccc(Br)cn12", "Potency": "inconclusive [cytotoxic, single point]"},
      {"smiles": "COc1ccc(N2CCN(C(c3cc4cc(C)ccc4[nH]c3=O)c3nnnn3Cc3ccccc3)CC2)cc1", "note": "(configuration not stated)", "activity, negative = less viability": "inactive: -8.37%"},
      {"smiles": "COc1ccccc1N1CCN(CC(=O)Nc2c(C)n[nH]c2C)CC1", "activity, negative = less viability": "inactive: 7.22%"},
      {"smiles": "Cc1cc(/C=C2\\C(=N)N3N=C(S(C)(=O)=O)SC3=NC2=O)c(C)n1Cc1ccccc1", "activity, negative = less viability": "inactive: -14.9%"},
      {"smiles": "COc1ccc(C(NC(=O)CC(C)C)c2c(O)ccc3ccccc23)cc1", "note": "(configuration not stated)", "Potency": "inconclusive [cytotoxic, single point]"},
      {"smiles": "Cc1cc(C(=O)N2CC=C(c3ccccc3)CC2)c2ccccc2n1", "Potency": "inconclusive [cytotoxic, full curve]"},
      {"smiles": "COC(=O)[C@H]1C[C@@H]1[C@H](NC(=O)OCc1ccccc1)c1ccccc1", "Potency": "inconclusive [rising, single point]"},
      {"smiles": "CO/N=C/NC(=O)NOCc1ncc(C(F)(F)F)cc1Cl", "activity, negative = less viability": "inactive: -2.3%"},
      {"smiles": "CN1CCN(C(=O)c2cc3nc(-c4ccccc4)cc(-c4ccccc4)n3n2)CC1", "Potency": "active: 14.6 µM"},
      {"smiles": "CCOC(=O)c1ccccc1Nc1cn(C(C)=O)c2ccccc12", "Potency": "inconclusive [cytotoxic, full curve]"},
      {"smiles": "CCN(CC)CCNC(=O)c1ccc(NC(=O)c2c(C)nn(-c3ccc(F)cc3)c2Cl)cc1", "Potency": "inconclusive [cytotoxic, single point]"},
      {"smiles": "COc1ccccc1-[n+]1c(C)cc(/C=C2\\Sc3ccccc3N2C)cc1C", "Potency": "active: 2.59 µM"},
      {"smiles": "Cc1nnc(NC(=O)c2nc(S(=O)(=O)Cc3ccccc3)ncc2Cl)s1", "Potency": "active: 14.6 µM"},
      {"smiles": "CCC(/C=N/NC(=O)C(N)=O)CC", "activity, negative = less viability": "inconclusive: 29.2%"},
      {"smiles": "O=C(Cn1nc(Br)nc1Br)c1ccccc1", "activity, negative = less viability": "inactive: -0.795%"},
      {"smiles": "Nc1sc(-c2ccccc2)c(Cc2ccccc2)c1C(=O)O", "activity, negative = less viability": "inactive: 6.04%"},
      {"smiles": "COc1ccc(C(=O)NCC(c2ccco2)N2CCc3ccccc32)cc1", "note": "(configuration not stated)", "Potency": "active: 4.11 µM"},
      {"smiles": "COc1ccc(/C=C2\\NC(=S)N(CC3CCCO3)C2=O)c(OC)c1C", "note": "(configuration not stated)", "Potency": "inconclusive [cytotoxic, single point]"},
      {"smiles": "N#C/C(=C\\c1ccc(-c2cccc([N+](=O)[O-])c2)o1)C(=O)NCCN1CCOCC1", "Potency": "inconclusive [cytotoxic, single point]"},
      {"smiles": "N#Cc1c(N)nc2c3c(sc(=N)c2c1N)NC(=O)CC3c1ccccc1", "note": "(configuration not stated)", "Potency": "inconclusive [cytotoxic, single point]"},
      {"smiles": "COc1nc(-c2cccs2)cc(-c2ccc(C)cc2)c1C#N", "Potency": "inconclusive [cytotoxic, single point]"},
      {"smiles": "COC(=O)c1cc(NC(=O)c2cc(-c3ccc(Cl)cc3)oc2C(F)(F)F)ccc1N1CCOCC1", "Potency": "inconclusive [cytotoxic, single point]"},
      {"smiles": "O=c1c2ccccc2n(Cc2ccc(F)cc2)c(=O)n1C1CCCC1", "Potency": "inconclusive [cytotoxic, single point]"},
      {"smiles": "C=CCNC(=S)N1CCC(C(=O)c2ccc(F)cc2)CC1", "activity, negative = less viability": "inactive: 3.5%"},
      {"smiles": "Cn1sc2ccccc2c1=O", "Potency": "inconclusive [cytotoxic, single point]"},
      {"smiles": "Cc1cc2nc3ccc(=[N+](C)C)cc-3sc2cc1N", "Potency": "active: 8.2 µM"},
      {"smiles": "CC(=O)NC(c1ccc(N(C)C)cc1)c1cc(Cl)c2cccnc2c1O", "note": "(configuration not stated)", "Potency": "inconclusive [cytotoxic, full curve]"},
      {"smiles": "CCN1C/C(=C/c2ccc(N3CCOCC3)cc2)C(=O)/C(=C/c2ccc(N3CCOCC3)cc2)C1", "Potency": "inconclusive [cytotoxic, single point]"},
      {"smiles": "CCOC(=O)C1=CCN(S(=O)(=O)c2ccc(Br)cc2)C1c1cccc(C)c1", "note": "(configuration not stated)", "Potency": "inconclusive [cytotoxic, single point]"},
      {"smiles": "CC(C)(C)NC(=O)C(c1c[nH]c2ccccc12)N(C(=O)Cn1nnc(-c2ccc(Cl)cc2)n1)c1ccccc1F", "note": "(configuration not stated)", "activity, negative = less viability": "inactive: -9.46%"},
      {"smiles": "COc1ccc([C@H]2C[C@H](O)[C@@H](n3cc(-c4ccc(F)cc4)nn3)CN2Cc2cccs2)cc1", "Potency": "active: 2.91 µM"},
      {"smiles": "O=C1NC[C@H](Cc2ccccc2)N(C[C@H]2CCCN2C[C@H](Cc2ccccc2)N2C[C@H](Cc3ccc(O)cc3)N(CC3CCCCCC3)C(=O)C2=O)C1=O", "Potency": "inconclusive [cytotoxic, single point]"},
      {"smiles": "CCN(CC)CCCCN1c2ccccc2Sc2ccccc21", "Potency": "active: 18.4 µM"},
      {"smiles": "Nc1nc(N)c2c(ccc3nccc32)[nH]1", "Potency": "active: 5.8 µM"},
      {"smiles": "CC(C)(C)c1ccc(C(=O)N2CCC2(C)C(=O)NCc2cccs2)cc1", "note": "(configuration not stated)", "Potency": "inconclusive [cytotoxic, partial curve]"},
      {"smiles": "CCN(CC)c1ccc(NC(=O)c2cccc(OC)c2)c(C)c1", "Potency": "inconclusive [cytotoxic, partial curve]"},
      {"smiles": "O=C(NCc1ccccc1)C1C(c2ccc3c(c2)OCO3)=Nc2ccccc2N1C(=O)c1ccco1", "note": "(configuration not stated)", "Potency": "active: 13 µM"},
      {"smiles": "CCOC(=O)c1cccc(-c2c(-c3ccccc3)ncc3cc(OC)c(OC)cc23)c1", "Potency": "inconclusive [cytotoxic, single point]"},
      {"smiles": "Cc1cc(=O)n2c3ccccc3n(CC(O)CN3CCCCC3)c2c1C#N", "note": "(configuration not stated)", "Potency": "inconclusive [cytotoxic, single point]"},
      {"smiles": "COc1ccc(CCNC(=O)CCS(=O)(=O)c2ccc3c(c2)NC(=O)CO3)cc1OC", "activity, negative = less viability": "inactive: 17%"},
      {"smiles": "CC1(Cc2ccc(Cl)cc2)C(=O)Nc2ccc(-c3ccc(F)c(Cl)c3)cc21", "note": "(configuration not stated)", "Potency": "inconclusive [cytotoxic, single point]"},
      {"smiles": "OC(CNCc1ccc(Cl)cc1)(c1ccccc1)c1ccc(F)cc1", "note": "(configuration not stated)", "Potency": "inconclusive [cytotoxic, single point]"},
      {"smiles": "COc1cc2c(cc1OC)C(c1ccccc1)N(C(=O)CCl)CC2", "note": "(configuration not stated)", "Potency": "inconclusive [cytotoxic, single point]"},
      {"smiles": "Cc1ccc(C#CC[N+]2(CC#Cc3ccc(C)cc3)CCCCC2)cc1", "Potency": "active: 20.6 µM"},
      {"smiles": "COc1ccc2oc3cc(NCCN(C)C)ccc3c(=O)c2c1", "Potency": "inconclusive [cytotoxic, single point]"},
      {"smiles": "CN(Cc1ccccc1)C(=O)c1cccc(NC(=O)Cc2ccc(NC(=O)C3CCCN(C(=O)C4CCCC4)C3)cc2)c1", "note": "(configuration not stated)", "activity, negative = less viability": "inactive: -14.3%"},
      {"smiles": "O=C(Oc1ccc(-c2nnco2)cc1)c1ccco1", "activity, negative = less viability": "inactive: 16.7%"},
      {"smiles": "Cc1cccc(C(=O)NNS(=O)(=O)c2ccc(F)cc2)c1O", "activity, negative = less viability": "inactive: -8.78%"},
      {"smiles": "COc1ccc(CNCC(O)(c2ccccc2)c2ccc(Cl)cc2)cc1", "note": "(configuration not stated)", "Potency": "inconclusive [cytotoxic, single point]"},
      {"smiles": "N#Cc1ccc(NC(=O)Cn2cnc([N+](=O)[O-])c2)cc1", "activity, negative = less viability": "inactive: 2.19%"},
      {"smiles": "CN1C(=O)c2ccc(C(=O)NCc3ccco3)cc2C1=O", "activity, negative = less viability": "inconclusive: 33.2%"},
      {"smiles": "OCC1(Cc2cccc(F)c2)CCN(Cc2ccc3cccc(F)c3n2)CC1", "Potency": "inconclusive [cytotoxic, single point]"},
      {"smiles": "CCOc1ccccc1C1c2[nH]c3ccccc3c2C[C@H]2C(=O)N(C3CCN(Cc4ccccc4)CC3)CC(=O)N12", "note": "(some centres not stated)", "Potency": "inconclusive [cytotoxic, partial curve]"},
      {"smiles": "COc1ccc([N+](=O)[O-])cc1NCc1ccccc1", "activity, negative = less viability": "inactive: -11.1%"},
      {"smiles": "O=C(NCC1CC1)c1cc([N+](=O)[O-])cc([N+](=O)[O-])c1", "activity, negative = less viability": "inactive: -1.79%"},
      {"smiles": "CCCN(CC(=O)Nc1ccccc1C)C(=O)C1CC(=O)N(c2ccc(CC)cc2)C1", "note": "(configuration not stated)", "activity, negative = less viability": "inactive: 5.27% [at 9.24 µM]"},
      {"smiles": "Cc1ccc(NNC(=S)Nc2ccc(C(C)C)cc2)c(C)c1", "activity, negative = less viability": "inactive: -5.4%"},
      {"smiles": "Nc1nc(=S)c2ncn(C3OC(CO)C(O)C3O)c2[nH]1", "note": "(configuration not stated)", "Potency": "active: 14.6 µM"},
      {"smiles": "O=C(COC(=O)Cc1ccccc1F)Nc1ccc(F)cc1F", "activity, negative = less viability": "inactive: 9%"},
      {"smiles": "O=C(Nc1ccc(NC(=O)c2ccccc2)c2ccccc12)c1ccccc1", "activity, negative = less viability": "inconclusive: -30.4% [cytotoxic]"},
      {"smiles": "CC(C)C[C@H](NC(=O)c1[nH]cnc1C(=O)N[C@@H](C)c1ccccc1)C(=O)OC(C)(C)C", "Potency": "inconclusive [cytotoxic, single point]"},
      {"smiles": "Cc1ncoc1C(=O)Nc1ncc([N+](=O)[O-])s1", "activity, negative = less viability": "inactive: -8.25%"},
      {"smiles": "COc1ccc(N=CC2=C(O)CC(c3ccccc3)CC2=O)c(OC)c1", "note": "(configuration not stated)", "Potency": "inconclusive [cytotoxic, partial curve]"},
      {"smiles": "Cc1cccc(C(C(=O)NC2CCCCC2)N(Cc2cccnc2)C(=O)c2csnn2)c1", "note": "(configuration not stated)", "activity, negative = less viability": "inconclusive: -1.16% [cytotoxic]"},
      {"smiles": "COc1ccc([C@]2(C(C)C)ON(c3ccccc3C(F)(F)F)C2=O)cc1", "Potency": "inconclusive [cytotoxic, single point]"}
    ]}
  ]
}
